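48-hour exposure; five concentrations; linearly interpolated endpoints. The concentration for 50% growth inhibition is given as GI50.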 Some entries of the source have several records that differ or are many. The list is limited to them. An entry can have further records. For some of these results: Results that share an entry are repeated measurements (runs, samples, wells, individuals or studies). Brackets tell where a record comes from. Letters count within one entry.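 TGI: concentration producing complete growth inhibition.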 For some of these results: A record mostly stands for its own series of concentrations, which the source does not state; a value can be the end of its range.
Tests used:
Test in all cases: NCI anticancer screen, dose series, 48 h
MALME-3M melanoma = test system: MALME-3M melanoma
MDA-MB-435 = test system: MDA-MB-435
SK-MEL-2 melanoma = test system: SK-MEL-2 melanoma
A498 renal = test system: A498 renal
HCC-2998 colon = test system: HCC-2998 colon
HOP-62 NSCLC = test system: HOP-62 NSCLC
LOX IMVI melanoma = test system: LOX IMVI melanoma
MCF7 breast = test system: MCF7 breast
MOLT-4 leukemia = test system: MOLT-4 leukemia
NCI-H23 lung = test system: NCI-H23 lung
NCI-H460 lung = test system: NCI-H460 lung
OVCAR-3 ovarian = test system: OVCAR-3 ovarian
PC-3 prostate = test system: PC-3 prostate
SF-539 CNS = test system: SF-539 CNS
SK-MEL-5 melanoma = test system: SK-MEL-5 melanoma
KM12 colon = test system: KM12 colon
OVCAR-4 ovarian = test system: OVCAR-4 ovarian
OVCAR-8 ovarian = test system: OVCAR-8 ovarian
SW-620 colon = test system: SW-620 colon
T-47D breast = test system: T-47D breast

Structure (SMILES)	TGI (MALME-3M melanoma)	GI50 (MDA-MB-435)	TGI (SK-MEL-2 melanoma)	TGI (A498 renal)	TGI (HCC-2998 colon)	TGI (HOP-62 NSCLC)	TGI (LOX IMVI melanoma)	TGI (MCF7 breast)	TGI (MOLT-4 leukemia)	TGI (NCI-H23 lung)	TGI (NCI-H460 lung)	TGI (OVCAR-3 ovarian)	TGI (PC-3 prostate)	TGI (SF-539 CNS)	TGI (SK-MEL-5 melanoma)	TGI (KM12 colon)	TGI (OVCAR-4 ovarian)	TGI (OVCAR-8 ovarian)	TGI (SW-620 colon)	TGI (T-47D breast)
CN(C)CCOc1ccc(-c2nc(-c3ccc4c(c3)CC/C4=N\O)c(-c3ccncc3)[nH]2)cc1	21.3 nM [sample A, mean of 2 tests] and 2 µM [sample B, mean of 2 tests]	62.4 nM [sample A, mean of 2 tests] and 1.46 µM [sample B, mean of 2 tests]	1.48 µM [sample A, mean of 2 tests] and 24 µM [sample B, mean of 4 tests]																	
COc1cc(C2c3[nH]c4ccccc4c3C[C@H]3COC(=O)N23)cc(OC)c1OC (some centres not stated)				763 nM and < 10 nM	566 nM and 47 nM	8.37 µM and > 100 µM	3.28 µM and > 100 µM	7.86 µM and > 100 µM	4.89 µM and 317 nM	4.05 µM and > 100 µM	3.84 µM and > 100 µM	134 nM and < 10 nM	6.8 µM and > 100 µM	108 nM and < 10 nM	80.2 nM and 26.7 µM					
CC(C)[C@]12O[C@H]1[C@@H]1O[C@]13[C@]1(O[C@H]1C[C@H]1C4=C(CC[C@@]13C)C(=O)OC4)[C@@H]2O						240 nM [sample A] and > 100 µM [sample B]							94.3 nM [sample A] and > 100 µM [sample B]			198 nM [sample A] and > 22.6 µM [sample B]	27.4 nM [sample A] and 304 nM [sample B]	148 nM [sample A] and > 100 µM [sample B]	136 nM [sample A] and > 100 µM [sample B]	72.6 nM [sample A, 1 test] and > 100 µM [sample B, mean of 2 tests]

Source: PubChem BioAssay (NCI)
